45 molecules from paper PMC11995724, “Antibiotic target discovery by integrated phenotypic and activity-based profiling of electrophilic fragments” (Cell chemical biology, 2025) can be followed below.

Hit rate of the full screen: of about 3,200 compounds, about 75 (2%) showed an effect of 50% or more. The list shows a part of the results.

The assay relates to T1, S. aureus MSSA476.
T1 construct: MSSA476
Set-up: species or system S. aureus MSSA476 (TSB) or V. cholerae SAD30 (LB); 384-well bacterial growth screen at 25 uM, OD600 relative to DMSO control. The following applies: relative growth, OD600, TSB; 25 µM; inhibitor.
`CC(NC(=O)CCl)c1nc2c(s1)CCCCC2` (stereo not drawn) [7-M22, 2-chloro-N-(1-{4H,5H,6H,7H,8H-cyclohepta[d][1,3]thiazol-2-yl}ethyl)acetamide]: the “% of control remaining” value came out at 93.8776%.

For `Cc1cc(CNC(=O)C(C#N)=Cc2ccco2)ccc1N(C)C` [9-N09, 2-cyano-N-{[4-(dimethylamino)-3-methylphenyl]methyl}-3-(furan-2-yl)prop-2-enamide], the “% of control remaining” value is recorded as 94.9813%.

Consider `C=CC(=O)N1CCC(Cc2nccs2)C1` (stereo not drawn) [3-O16, 1-{3-[(1,3-thiazol-2-yl)methyl]pyrrolidin-1-yl}prop-2-en-1-one], for which the “% of control remaining” value is given as 74.532%.

Take `N#CC(=Cc1ccc2c(c1)OCO2)C(=O)NCc1ccccc1` [8-A09, 3-(1,3-dioxaindan-5-yl)-N-benzyl-2-cyanoprop-2-enamide]: the “% of control remaining” value turned out to be 113.527%.

Consider `C=CCNC(=O)C(C#N)=Cc1cccc2ccccc12` [9-L10, 2-cyano-3-(naphthalen-1-yl)-N-(prop-2-en-1-yl)prop-2-enamide], for which the “% of control remaining” value came out at 84.794%.

Turning to `CCCc1ccc(C(=O)CCl)cc1` [10-C04, 2-chloro-1-(4-propylphenyl)ethan-1-one], the “% of control remaining” value is listed as 134.375%.

Turning to `C=CC(=O)N1CCC(C(=O)NC[C@H]2C[C@@H](O)C2)(c2ccccc2)CC1` [3-O04, 4-phenyl-1-(prop-2-enoyl)-N-{[(1s,3s)-3-hydroxycyclobutyl]methyl}piperidine-4-carboxamide], the “% of control remaining” value was determined as 96.8219%.

As for `Cc1cc(C=C(C#N)C(=O)NCc2ccco2)cc(C)c1O` [8-J16, 2-cyano-N-[(furan-2-yl)methyl]-3-(4-hydroxy-3,5-dimethylphenyl)prop-2-enamide], the “% of control remaining” value amounted to 103.237%.

Take `CN(C)C(=O)c1csc(C(=O)CCl)c1` [10-I07, 5-(2-chloroacetyl)-N,N-dimethylthiophene-3-carboxamide]: the “% of control remaining” value was 122.813%.

With `C=CC(=O)NCc1cccc(OC)n1` [1-H22, N-[(6-methoxypyridin-2-yl)methyl]prop-2-enamide], the “% of control remaining” value worked out at 112.527%.

In the case of `CC1CCCCC1OCCNC(=O)CCl` (stereo not drawn) [6-O06, 2-chloro-N-{2-[(2-methylcyclohexyl)oxy]ethyl}acetamide], the “% of control remaining” value came out at 89.4634%.

As for `N#Cc1nc(-c2ccco2)oc1N1CCN(C(=O)CCl)CC1` [4-B22, 5-[4-(2-chloroacetyl)piperazin-1-yl]-2-(furan-2-yl)-1,3-oxazole-4-carbonitrile], the “% of control remaining” value stood at 109.385%.

Take `CC(C)CC(=O)Nc1ccc(C(=O)CCl)cc1` [10-N06, N-[4-(2-chloroacetyl)phenyl]-3-methylbutanamide]: the “% of control remaining” value was 1.25%.

With `Cc1cc(C(=O)CCl)c(C)n1C1CCS(=O)(=O)C1` (stereo not drawn) [10-B12, 3-[3-(2-chloroacetyl)-2,5-dimethyl-1H-pyrrol-1-yl]-1lambda6-thiolane-1,1-dione], the “% of control remaining” value was found to be 128.438%.

For the molecule `N#Cc1cccc2c1CC[C@H]2NC(=O)CCl` [7-D06, 2-chloro-N-[(1R)-4-cyano-2,3-dihydro-1H-inden-1-yl]acetamide], the “% of control remaining” value is 91.9937%.

In the case of `COc1cccc(NC(=O)C(C#N)=Cc2ccc(C)cc2C)c1` [8-C16, 2-cyano-3-(2,4-dimethylphenyl)-N-(3-methoxyphenyl)prop-2-enamide], the “% of control remaining” value came out at 120.166%.

For the molecule `N#CC(=Cc1ccsc1)C(=O)Nc1nccs1` [9-C17, 2-cyano-N-(1,3-thiazol-2-yl)-3-(thiophen-3-yl)prop-2-enamide], the “% of control remaining” value was found to be 97.0787%.

Turning to `C=CC(=O)NC1(C(N)=O)CCCC1C` (stereo not drawn) [3-B09, 2-methyl-1-(prop-2-enamido)cyclopentane-1-carboxamide], the “% of control remaining” value was found to be 127.122%.

`C=CC(=O)NCc1n[nH]c(=O)n1C1CC1` [3-N08, N-[(4-cyclopropyl-5-oxo-4,5-dihydro-1H-1,2,4-triazol-3-yl)methyl]prop-2-enamide]: the “% of control remaining” value came out at 91.946%.

As to `CCn1cc(CN(C)C(=O)C(C)Cl)nn1` (stereo not drawn) [6-L22, 2-chloro-N-[(1-ethyl-1H-1,2,3-triazol-4-yl)methyl]-N-methylpropanamide], the “% of control remaining” value is on record as 92.878%.

Consider `COCCn1c(N)c(C(=O)CCl)c(=O)[nH]c1=O` [10-N12, 6-amino-5-(2-chloroacetyl)-1-(2-methoxyethyl)-1,2,3,4-tetrahydropyrimidine-2,4-dione], for which the “% of control remaining” value turned out to be 101.563%.

Turning to `O=C(CCl)Nc1ccccc1S(=O)(=O)C(F)F` [4-B18, 2-chloro-N-(2-difluoromethanesulfonylphenyl)acetamide], the “% of control remaining” value worked out at 119.676%.

Take `Cc1ccccc1NC(=O)C(C#N)=Cc1ccccc1Cl` [8-N05, 3-(2-chlorophenyl)-2-cyano-N-(2-methylphenyl)prop-2-enamide]: the “% of control remaining” value is listed as 84.6473%.

With `C=CC(=O)Nc1ccc(OCCC)c(C)c1` [1-C20, N-(3-methyl-4-propoxyphenyl)prop-2-enamide], the “% of control remaining” value worked out at 110.769%.

Regarding `C=CC(=O)N1CCC(c2nnc(C)o2)CC1` [3-N04, 1-[4-(5-methyl-1,3,4-oxadiazol-2-yl)piperidin-1-yl]prop-2-en-1-one], the “% of control remaining” value is given as 120.853%.

`COC1CCN(c2ccc(F)cc2CN(C)C(=O)C(C)Cl)CC1` (stereo not drawn) [7-I11, 2-chloro-N-{[5-fluoro-2-(4-methoxypiperidin-1-yl)phenyl]methyl}-N-methylpropanamide]: the “% of control remaining” value turned out to be 101.099%.

Consider `CC(C)NC(=O)C(C#N)=Cc1ccc(F)cc1` [9-I09, 2-cyano-3-(4-fluorophenyl)-N-(propan-2-yl)prop-2-enamide], for which the “% of control remaining” value worked out at 105.768%.

For `Cc1ccc(C=C(C#N)C(=O)Nc2ccc(N3CCOCC3)cc2)s1` [8-A06, 2-cyano-3-(5-methylthiophen-2-yl)-N-[4-(morpholin-4-yl)phenyl]prop-2-enamide], the “% of control remaining” value came out at 106.888%.

Take `Cl.O=C(CCl)c1ccncc1F` [10-I09, 2-chloro-1-(3-fluoropyridin-4-yl)ethan-1-one hydrochloride]: the “% of control remaining” value was determined as 93.75%.

For the molecule `O=C1C=CC(=O)N1c1ccccc1F` [10-D17, 1-(2-fluorophenyl)-2,5-dihydro-1H-pyrrole-2,5-dione], the “% of control remaining” value came out at 118.75%.

Consider `N#CC(=Cc1ccccc1Cl)C(=O)Nc1ccc(Cl)cc1` [8-B11, 3-(2-chlorophenyl)-N-(4-chlorophenyl)-2-cyanoprop-2-enamide], for which the “% of control remaining” value amounted to 99.2531%.

As for `CC(Cl)C(=O)Nc1cccnc1Cl` (stereo not drawn) [6-C17, 2-chloro-N-(2-chloropyridin-3-yl)propanamide], the “% of control remaining” value came out at 109.61%.

Turning to `COc1ccc(NC(=O)C(C#N)=CC=Cc2ccccc2)cc1Cl` [8-M18, N-(3-chloro-4-methoxyphenyl)-2-cyano-5-phenylpenta-2,4-dienamide], the “% of control remaining” value is 98.5892%.

As for `O=C(CCl)Nc1nccc(Cl)n1` [6-C19, 2-chloro-N-(4-chloropyrimidin-2-yl)acetamide], the “% of control remaining” value is listed as 110.976%.

Regarding `C=CC(=O)Nc1cnn(-c2ccccc2)c1C(F)F` [3-I03, N-[5-(difluoromethyl)-1-phenyl-1H-pyrazol-4-yl]prop-2-enamide], the “% of control remaining” value was 88.1149%.

Take `CC(Cl)C(=O)NCc1ccn(CC(F)F)n1` (stereo not drawn) [7-I17, 2-chloro-N-{[1-(2,2-difluoroethyl)-1H-pyrazol-3-yl]methyl}propanamide]: the “% of control remaining” value amounted to 98.2732%.

Turning to `N#CC(=Cc1cccc(O)c1)C(=O)Nc1ccc(SC(F)F)cc1` [9-C19, 2-cyano-N-{4-[(difluoromethyl)sulfanyl]phenyl}-3-(3-hydroxyphenyl)prop-2-enamide], the “% of control remaining” value turned out to be 61.1236%.

Take `Nc1c(C(=O)CCl)c(=O)[nH]c(=O)n1C1CC1` [10-P06, 6-amino-5-(2-chloroacetyl)-1-cyclopropyl-1,2,3,4-tetrahydropyrimidine-2,4-dione]: the “% of control remaining” value amounted to 118.438%.

Regarding `Cc1nn(C)c(C)c1C(NC(=O)CCl)C(F)(F)F` (stereo not drawn) [5-M18, 2-chloro-N-[2,2,2-trifluoro-1-(1,3,5-trimethyl-1H-pyrazol-4-yl)ethyl]acetamide], the “% of control remaining” value is 92.1676%.

In the case of `Cc1cc(CN(C(=O)CCl)c2cn(C)nn2)ccc1Cl` [5-I12, 2-chloro-N-[(4-chloro-3-methylphenyl)methyl]-N-(1-methyl-1H-1,2,3-triazol-4-yl)acetamide], the “% of control remaining” value is given as 79.7814%.

Turning to `CC(Cl)C(=O)N1CCn2c(Cc3c(F)cccc3F)nnc2C1` (stereo not drawn) [6-F18, 2-chloro-1-{3-[(2,6-difluorophenyl)methyl]-5H,6H,7H,8H-[1,2,4]triazolo[4,3-a]pyrazin-7-yl}propan-1-one], the “% of control remaining” value was 110.976%.

As for `O=C(CCl)c1cn(-c2cccc(C(F)(F)F)c2)nn1` [10-C09, 2-chloro-1-{1-[3-(trifluoromethyl)phenyl]-1H-1,2,3-triazol-4-yl}ethan-1-one], the “% of control remaining” value is -0.3125%.

`N#CC(=Cc1coc2ccccc2c1=O)C(=O)NCCc1ccccc1` [9-J10, 2-cyano-3-(4-oxo-4H-chromen-3-yl)-N-(2-phenylethyl)prop-2-enamide]: the “% of control remaining” value amounted to 99.176%.

As for `O=C(CCl)N1CCC(CCc2ccccc2)CC1` [6-G12, 2-chloro-1-[4-(2-phenylethyl)piperidin-1-yl]ethan-1-one], the “% of control remaining” value is given as 75.122%.

On to `CC(=O)NC1(c2nc(C)cs2)CCN(C(=O)C(C)Cl)C1` (stereo not drawn) [7-O06, N-[1-(2-chloropropanoyl)-3-(4-methyl-1,3-thiazol-2-yl)pyrrolidin-3-yl]acetamide], for which the “% of control remaining” value is listed as 78.4929%.
